Experimental data: PubChem BioAssay (Tox21)
Several values for one entry are separate records, joined by “and”; a condition that tells them apart may be missing. Equal values may be shown once. The shares of active, inactive and inconclusive entries below differ from those in the screen. For some of these results: A potency beside an inconclusive call is a rough fit, not a confirmed value. Activity calls are given as the source filed them. Unless noted, calls come from the whole dose curve; as a rule, active = well fitted curve in the direction sought with a large enough effect in the repeat runs; inconclusive = weak or mixed curves; inactive = no such curve, though single readings can be large; an effect the other way counts as inactive or inconclusive.

Legend:
[1] = qHTS assay to identify small molecule antagonists of the retinoic acid receptor (RAR) signaling pathway (AID 1159552; note: nearly all actives have a fitted effect of over 50% in size; note: potency is the fitted concentration of half-maximal effect)
In short: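 Retinol at 1 uM final stimulated RARE-luciferase expression in C3RL4 cells exposed to test compounds for 6 hr at 37 C. Reduced luminescence, read 30 min after detection reagent, indicated pathway antagonism.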

[2] = qHTS assay to identify small molecule agonists of the retinoic acid receptor (RAR) signaling pathway (AID 1159553); details: C3RL4 RARE luciferase reporter, agonist, 6 h; activation: at 73.3 µM (top of the series) unless noted; note: potency is the fitted concentration of half-maximal effect; for activation: % is set by controls: 0 for no effect and ±100 for the full control effect
In short: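 C3RL4 RARE-luciferase cells were seeded at 1,000/well and grown overnight at 37 C, then exposed to compounds for 6 hr at 37 C, 5% CO2. Luciferase reagent was added and luminescence was read after 30 min at room temperature.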

[3] = biological target: Thyrotropin receptor (Homo sapiens) (UniProt P16473); assay: qHTS assay to identify small molecule agonists of the thyroid stimulating hormone receptor (TSHR) signaling pathway (AID 1224843; calls by dose curve; note: nearly all actives have a fitted effect of over 45% in size; note: potency is the fitted concentration of half-maximal effect; for activation: % is set by controls: 0 for no effect and ±100 for the full control effect); details: TSHR-HEK293 cells, cAMP HTRF, agonist mode, 30 min; activation: at 92.4 µM (top of the series) unless noted
In short: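 Steps: seed 800 TSHR-HEK293 cells per well; add test compound and hold 30 min at ambient temperature; dispense cAMP-d2 then anti-cAMP cryptate; incubate 1 h at ambient; measure fluorescence intensity.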

[4] = qHTS assay to identify small molecule agonists of the estrogen related receptor signaling pathway with the pleiotropic PPARgamma coactivator (PGC) (AID 1224823); note: potency is the fitted concentration of half-maximal effect
In short: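 Cell-based luciferase assay in the NTP-supplied PGC/ERR line, 2,000 cells/well; 18 h compound exposure at 37 C, luminescence after One-Glo.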

[5] = qHTS assay to identify small molecule agonists of the estrogen related receptor signaling pathway with the pleiotropic PPARgamma coactivator (PGC) from Tox21 10K library (AID 1224842); note: potency is the fitted concentration of half-maximal effect; nearly all actives have a fitted effect of over 15% in size
In short: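 PGC/ERR reporter cell line, 2,000 cells per well, incubated 6 h at 37 C before 23 nL compound in DMSO was added. After 18 h at 37 C, One-Glo luminescence read following 30 min at room temperature.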

[6] = system: estrogen-related receptor alpha (ERRalpha) with PGC-1alpha coactivator, human; assay: qHTS assay to identify small molecule antagonists of the estrogen related receptor signaling pathway with the pleiotropic PPARgamma coactivator (PGC) (AID 1224821; calls by dose curve;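 note: % is set by controls: 0 for no effect and ±100 for the full control effect; lower luminescence signal means antagonism of PGC/ERR signalling; nearly all actives have a fitted effect of over 50% in size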)
In short: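 Quantitative HTS for antagonism: PGC/ERR cells received compounds after 6 h attachment and were incubated 18 h at 37 C, with luminescence (One-Glo) as the endpoint.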

[7] = qHTS assay to identify small molecule antagonists of the estrogen related receptor signaling pathway with the pleiotropic PPARgamma coactivator (PGC) cell viability counter screen (AID 1224822; note: potency is the fitted concentration of half-maximal effect)
In short: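 PGC/ERR cells rested 6 h, then compound-treated 17.5 h at 37 C. CellTiter-Fluor added for 30 min at 37 C, viability measured by fluorescence intensity.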

[8] = qHTS assay to identify small molecule antagonists of the estrogen related receptor (ERR) signaling pathway from Tox21 library - cell viability counter screen (AID 1224834); note: potency is the fitted concentration of half-maximal effect; nearly all actives have a fitted effect of over 30% in size
In short: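 ERR reporter cells, 2,000 per well, rested 6 h, then exposed to compound in DMSO for 17.5 hours at 37 C. Viability read as fluorescence after 30 min with CellTiter-Fluor.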

[9] = qHTS assay to identify small molecule antagonists of the constitutive androstane receptor (CAR) signaling pathway - cell viability counter screen (AID 1224837); note: potency is the fitted concentration of half-maximal effect; nearly all actives have a fitted effect of over 45% in size
In short: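 HepG2 cells stably carrying hCAR and CYP2B6-2.2kb reporter, stimulated with 50 nM CITCO and compounds at 15 concentrations for 23 h at 37 C. Viability measured by CellTiter-Fluor fluorescence.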

[10] = qHTS assay to identify small molecule antagonists of the estrogen related receptor signaling pathway with the pleiotropic PPARgamma coactivator (PGC) from Tox21 10K library - cell viability counter screen (AID 1224840; active = well fitted cell-killing curve with a large enough effect in the repeat runs, not every such curve was filed as active; inconclusive = weak or mixed curves, or effect the other way; inactive = no such curve, though single readings can be large or run the other way; note: potency is the fitted concentration of half-maximal effect; nearly all actives have a fitted effect of over 40% in size)
In short: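 PGC/ERR cells (2,000/well) plated 6 h, then compound-treated for 17.5 h at 37 C. Viability measured by CellTiter-Fluor fluorescence after 30 min at 37 C, multiplexed with the pathway assay.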
Tags give direction and shape of the fitted curve or compound fluorescence and quenching.

Chain of UniProt P16473 (P16473 whole entry, looked up): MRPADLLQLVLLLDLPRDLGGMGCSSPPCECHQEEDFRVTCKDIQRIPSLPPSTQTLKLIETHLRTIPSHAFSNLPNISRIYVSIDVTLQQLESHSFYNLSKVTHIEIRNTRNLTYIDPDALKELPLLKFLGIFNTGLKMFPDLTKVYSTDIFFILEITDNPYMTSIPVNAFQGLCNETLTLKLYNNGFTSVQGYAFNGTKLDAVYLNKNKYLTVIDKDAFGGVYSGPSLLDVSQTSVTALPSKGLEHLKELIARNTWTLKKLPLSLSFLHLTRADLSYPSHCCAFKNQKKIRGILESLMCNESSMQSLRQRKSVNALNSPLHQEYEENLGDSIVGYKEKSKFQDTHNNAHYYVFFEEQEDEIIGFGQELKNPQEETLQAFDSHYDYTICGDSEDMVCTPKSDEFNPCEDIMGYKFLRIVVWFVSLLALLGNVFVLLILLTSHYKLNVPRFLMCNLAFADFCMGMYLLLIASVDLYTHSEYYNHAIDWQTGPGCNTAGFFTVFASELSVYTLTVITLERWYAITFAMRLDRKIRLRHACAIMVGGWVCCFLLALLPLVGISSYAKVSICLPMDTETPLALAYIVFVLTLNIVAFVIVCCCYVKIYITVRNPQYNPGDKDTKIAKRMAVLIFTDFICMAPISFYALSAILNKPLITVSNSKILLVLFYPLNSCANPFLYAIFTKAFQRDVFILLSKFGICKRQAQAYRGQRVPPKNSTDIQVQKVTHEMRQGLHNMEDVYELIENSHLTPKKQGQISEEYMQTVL

SMILES: O=C(OCc1ccccc1)c1ccccc1
- Potency [1]: inactive
- Potency [2]: inconclusive: 6.13 µM [activator, full curve] and active: 2.43 µM and active: 29.8 µM
- Potency [3]: inconclusive: 10.9 µM [inhibitor, partial curve] and inactive

SMILES: CCCC(=O)C(=O)O
- Potency [1]: inactive
- Potency [2]: inactive

SMILES: CN[C@H]1CC[C@@H](c2ccc(Cl)c(Cl)c2)c2ccccc21
- Potency [1]: active: 26.6 µM
- Potency [2]: inconclusive: 21.1 µM [inhibitor, partial curve]
- Potency [4]: inconclusive: 33.5 µM [activator, single point]
- Potency [5]: inconclusive: 18.8 µM [activator, single point]
- Potency [3]: inconclusive: 26.6 µM [activator, partial curve]

SMILES: CN(C)CCC=C1c2ccccc2C=Cc2ccccc21
- Potency [1]: inconclusive: 26.6 µM [inhibitor, partial curve]
- Potency [6]: inactive
- Potency [7]: inconclusive: 28.2 µM [cytotoxic]
- Potency [8]: inconclusive: 33.5 µM [cytotoxic, single point]
- Potency [9]: inconclusive: 26.6 µM [cytotoxic]
- activation [3]: inconclusive: -15.7% [at 42.5 µM]

SMILES: CCCCN(CCCC)CCC(O)c1cc2c(Cl)cc(Cl)cc2c2cc(C(F)(F)F)ccc12 (centres undefined)
- Potency [1]: inconclusive: 11.9 µM [inhibitor, partial curve]
- Potency [2]: inconclusive: 29.8 µM [inhibitor, partial curve, poor fit]
- Potency [10]: inconclusive: 33.5 µM [cytotoxic, single point]
